Test in all cases: NCI anticancer screen, dose series, 48 h
The subject of assay [1] is NCI-H460 lung.
The subject of assay [2] is SN12C renal.
For assay [3], the system named is NCI/ADR-RES ovarian.
Assay [4] has as its system SK-OV-3 ovarian.
Assay [5] relates to SW-620 colon.
Assay [6] relates to HT29 colon.
Assay [7] relates to HS 578T breast.
Assay [8] concerns OVCAR-8 ovarian.
Assay [9] deals with SF-268 CNS.
Assay [10] deals with SF-295 CNS.
The subject of assay [11] is HCC-2998 colon.
Assay [12] has as its system RXF 393 renal.
Assay [13] relates to RPMI-8226 leukemia.
The subject of assay [14] is TK-10 renal.
Assay [15] has as its system U251 CNS.
The subject of assay [16] is HOP-92 NSCLC.
Assay [17] deals with SF-539 CNS.
In assay [18] the test system is SK-MEL-5 melanoma.
The subject of assay [19] is MOLT-4 leukemia.
For assay [20], the system named is UACC-257 melanoma.
Assay [21] relates to K-562 leukemia.
Assay [22] concerns MDA-MB-435.
The subject of assay [23] is A498 renal.
In assay [24] the test system is OVCAR-4 ovarian.
For assay [25], the system named is MALME-3M melanoma.
Assay [26] relates to UO-31 renal.
The subject of assay [27] is NCI-H23 lung.
In assay [28] the test system is SR leukemia.
Assay [29] relates to HOP-62 NSCLC.
For assay [30], the system named is SNB-75 CNS.
Assay [31] relates to NCI-H522 lung.
In assay [32] the test system is T-47D breast.
In assay [33] the test system is HL-60(TB) leukemia.
Assay [34] has as its system IGROV1 ovarian.
In assay [35] the test system is LOX IMVI melanoma.
The test system of assay [36] is UACC-62 melanoma.
Assay [37] relates to A549 NSCLC.
Assay [38] relates to OVCAR-5 ovarian.
In assay [39] the test system is DMS 114 small cell lung.
Assay [40] has as its system OVCAR-3 ovarian.
The subject of assay [41] is M19-MEL melanoma.
In assay [42] the test system is KM20L2 colon.
In assay [43] the test system is HCT-15 colon.
In assay [44] the test system is CAKI-1 renal.
Assay [45] concerns XF 498 CNS.
Assay [46] concerns SK-MEL-28 melanoma.

Each structure is given as a SMILES string.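 Results reflect a 48-hour exposure of cells in 96-well plates to compound at five concentrations. Abbreviation: GI50, concentration required for 50% inhibition of growth.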 A number of entries come with more than one value. This list holds those alone. An entry can have further records. For part of these data: A record mostly stands for its own series of concentrations, which the source does not state; some values may only mark the edge of a range. For part of these data: Values that stand side by side are repeats across runs, samples, wells, individuals or studies. Records carry a tag for their origin. The letters are not those of the source and start again with each entry.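 The concentration for full growth arrest is given as TGI.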

Consider `CCNC(=O)CCC(C)[C@H]1CCC2C3C(C[C@H](OC(C)=O)[C@@]21C)[C@@]1(C)CCC2(C[C@H]1C[C@H]3OC(C)=O)OOC1(CCC(C)CC1)OO2` (some centres undefined), for which the TGI in assay [1] is > 100 µM [sample A] and 4.47 µM [sample B]; in assay [2], 55.9 µM [sample A] and 4.41 µM [sample B]; in assay [3], > 100 µM [sample A] and 3.53 µM [sample B]; in assay [4], > 100 µM [sample A] and 7.12 µM [sample B]; in assay [5] it was > 100 µM [sample A] and 9.93 µM [sample B]; in assay [6], > 100 µM [sample A, 1 test] and 9.86 µM [sample B, 1 test]. Further, the TGI in assay [7] is 89.9 µM [sample A] and 7.88 µM [sample B]; in assay [8], > 100 µM [sample A] and 3.24 µM [sample B]; in assay [9], > 100 µM [sample A, 1 test] and 3.62 µM [sample B, 1 test]; in assay [10], > 100 µM [sample A] and 5.2 µM [sample B].
As for `CCc1c2c(nc3ccc(O)cc13)-c1cc3c(c(=O)n1C2)COC(=O)[C@]3(O)CC`, the GI50 in [11] was < 1 nM [1 test] and 86.1 nM [mean of 3 tests]; in assay [12], < 1 nM [1 test] and 31.9 nM [mean of 3 tests]; in [18], < 1 nM [1 test] and 14.1 nM [mean of 3 tests]; in [21] it was < 1 nM [1 test] and 25.1 nM [mean of 3 tests]; in assay [22], < 1 nM [1 test] and 33.7 nM [mean of 3 tests]; in assay [3], < 1 nM [1 test] and 31.4 nM [mean of 3 tests]. Besides, the GI50 in [23] was < 1 nM [1 test] and 37.9 nM [mean of 3 tests]; in [25], < 1 nM [1 test] and 81.4 nM [mean of 2 tests]; in assay [26], < 1 nM [1 test] and 12.5 nM [mean of 3 tests]; in assay [5], < 1 nM [1 test] and 26.1 nM [mean of 3 tests]; in assay [6] it was < 1 nM [1 test] and 43.7 nM [mean of 3 tests]; in assay [8], < 1 nM [1 test] and 14.7 nM [mean of 3 tests]. For the same molecule, the GI50 in assay [30] is < 1 nM [1 test] and 14.8 nM [mean of 3 tests]; in assay [31], < 1 nM [1 test] and 17.4 nM [mean of 3 tests]; in assay [34] it was < 1 nM [1 test] and 225 nM [mean of 3 tests]. Besides, the TGI in assay [11] was 114 nM [1 test] and 4.84 µM [mean of 3 tests]; in assay [12], 17.2 nM [1 test] and 306 nM [mean of 3 tests]; in assay [13] it was 43.7 nM and 97.5 µM; in assay [14], 1.21 µM and 31.5 µM; in assay [15] it was 1.68 nM and 198 nM; in assay [16], 4.83 nM [1 test] and 193 nM [mean of 2 tests]. Besides, the TGI was < 1 nM and 15.7 nM in assay [17]; 7.57 nM [1 test] and 121 nM [mean of 3 tests] in [18]; < 1 nM and > 100 µM in assay [19]; 174 nM and 2.49 µM in assay [20]; 23.2 nM [1 test] and 306 nM [mean of 3 tests] in [23]; 915 nM and > 31.6 µM in assay [24]. Moreover, the TGI in [25] is 333 nM [1 test] and 4.46 µM [mean of 2 tests]; in [27] it was 1.39 µM and 99.8 nM; in assay [28], < 1 nM and > 100 µM; in [29] it was 1.28 nM and 201 nM; in assay [8], 16.1 nM [1 test] and > 17.2 µM [mean of 3 tests]; in assay [32], 144 nM and 2.66 µM. Moreover, the TGI in assay [33] was < 1 nM and > 100 µM; in assay [34], 294 nM [1 test] and > 25.9 µM [mean of 3 tests]; in [35], 9.34 nM and 135 nM; in assay [36] it was 5.16 nM and 138 nM.
For the molecule `COc1cccc2c1C(CO)N1C(C#N)C3CC(C(=O)O)C(C1C2)N3C` (centres undefined), the TGI in assay [37] was 9.1 µM and > 100 µM; in assay [15], 6.92 µM and > 100 µM; in [38] it was 9.57 µM and 444 nM; in [19] it was 7.03 µM and 370 nM; in assay [39] it was 4.95 µM and 429 nM; in assay [40], 3 µM and > 100 µM. In addition, the TGI in [22] was 372 nM and 4.69 µM; in [23] it was 7.51 µM and > 100 µM; in assay [5], 8.2 µM and > 100 µM; in assay [41] it was 8.91 µM and 594 nM; in assay [42] it was 8.37 µM and 502 nM; in assay [43] it was 5.94 µM and > 62.7 µM. Moreover, the TGI in assay [44] was 2.99 µM and > 100 µM; in assay [8], 6.75 µM and > 100 µM; in assay [45], 3.38 µM and > 100 µM; in [32], 670 nM and > 26.6 µM; in [35] it was 4.92 µM and > 100 µM. The GI50 in assay [29] is 284 nM [mean of 3 tests] and 3.27 µM [mean of 4 tests]; in assay [34] it was 336 nM [mean of 3 tests] and 4.04 µM [mean of 4 tests].
Regarding `COc1ccc(-c2[nH]c(=O)n(C3OC(CO)C(O)C(O)C3O)c(=O)c2C#N)cc1` (centres undefined), the GI50 in assay [33] is > 100 µM [sample A, 1 test] and 9.62 µM [sample B, 1 test].
For the molecule `COc1cc(CC(C)C(C)Cc2ccc(O)c(OC)c2)ccc1O` (centres undefined), in assay [33], the TGI was 23.1 µM and 75.8 nM.
On to `COc1ccc2[nH]c3c(C)c4ccnc(NCCCN(C)CCCNc5ccc6nnn7c8ccccc8c(=O)c5c67)c4c(C)c3c2c1`, for which the TGI in [46] was 4.28 µM and > 100 µM.

(Values after PubChem BioAssay (NCI).)
